PubChem BioAssay AID504706 (National Center for Advancing Translational Sciences (NCATS), 2011)
Hit rate of the full screen: of about 320,000 compounds, about 200 (0.062%) were called active. This list was built around the results that the source calls inconclusive (neither active nor inactive); the mix of calls is not that of the screen. Calls follow the shape of the dose curve; as a rule, active = well fitted activation curve with a large enough effect; inconclusive = small, poorly fitted or top-dose-only effect; inactive = no such curve, though single readings can be large or run the other way. No potency is given beside an inconclusive call; the fits are too rough.

Assay: qHTS assay for re-activators of p53 using a Luc reporter; also: nearly all actives have a fitted effect of over 45% in size; as to activity change, positive = activation: % of control where 0% means no effect
Conditions: H1299 p53-A138V BP100-luciferase reporter, luminescence, 24 h; series mostly up to 92.2 µM; activity change, positive = activation: at the top concentration
Procedure, shortened: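 p53-null H1299 cells stably carrying temperature-sensitive p53-A138V and a BP100-luciferase reporter were pinned with compounds (4-point, 1:5 series) and held 24 hrs at 37 deg C. Luminescence was read 10 min after detection reagent.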
Potency is read from the fitted curve at half-maximal effect; tags tell the direction and shape of the fitted curve.

| Compound | activity change, positive = activation | Potency |
| --- | --- | --- |
| CCc1ccc2nc(/N=C(\N)NC(=O)c3ccccc3)nc(C)c2c1 | inactive: 1.27% | – |
| CCn1c(COc2ccccc2)nc2ccccc21 | – | inconclusive [activator, single point] |
| Cc1cccc(C(=O)NCC(=O)N2CCN(S(=O)(=O)c3ccc4c(c3)OCCO4)CC2)c1 | inactive: -0.404% | – |
| CCNC(=O)c1ccc(NS(=O)(=O)c2ccc3[nH]c(=O)[nH]c3c2)cc1 | – | inconclusive [activator, partial curve, poor fit] |
| Cc1ccc(NC(=O)CNc2cccc(Br)c2)cc1S(=O)(=O)N1CCOCC1 | inactive: -1.04% | – |
| O=C(O)c1ccc(N=Nc2c(O)[nH]c3ccccc23)cc1 | inactive: -7.49% | – |
| CCOc1ccc2nc(NC(=O)c3ccccn3)sc2c1 | – | inconclusive [activator, full curve, poor fit] |
| O=C(Nc1ccc(N2CCCC2)cc1)c1ccc(Cl)cc1Cl | – | inconclusive [activator, partial curve, poor fit] |
| COc1ccc(NC(=O)Nc2nnc(Cc3ccccc3)s2)cc1 | – | inconclusive [activator, single point] |
| COc1ccc(/C=C2\CCC(C3CCCC3)C2=O)cc1 (stereo not drawn) | – | inconclusive [activator, full curve, poor fit] |
| COc1cccc(C=Nc2ccc3c(c2)OCCO3)c1O | – | inconclusive [activator, single point] |
| C/C(=N\Nc1ccccc1[N+](=O)[O-])c1ccccc1O | – | inconclusive [activator, single point] |
| O=C(OCC(=O)N1CCOCC1)c1ccccc1OCc1ccc(Cl)cc1 | – | inconclusive [activator, partial curve, poor fit] |
| CCC1CSC(Nc2ccc(C(=O)/C=C/c3cccc(C)c3)cc2)=N1 (stereo not drawn) | – | inconclusive [activator, single point] |
| Cc1ccc2cc(/C=N/Nc3nc4ccccc4[nH]3)c(Cl)nc2c1 | – | inconclusive [activator, partial curve, poor fit] |
| C=CCn1c(SCC(=O)NCc2ccccc2)nnc1-c1ccccc1O | inactive: -2.98% | – |
| O=C(CCl)Nc1ccc(N=Nc2ccccc2)cc1 | – | inconclusive [activator, full curve, poor fit] |
| COc1ccc(NC(=O)CC2C(=O)N(C)C(=S)N2CCc2ccccc2F)cc1 (stereo not drawn) | inactive: -4.96% | – |
| CCC1=NN2C(=N)/C(=C\c3cccn3-c3ccc(Br)cc3)C(=O)N=C2S1 | inactive: -0.965% | – |
| CCOC(=O)c1sc(-c2ccccc2)cc1N | – | inconclusive [activator, partial curve, poor fit] |
| CC1(C)Cc2nc3sc4c(=O)n(CC(N)=O)cnc4c3cc2CO1 | – | inconclusive [activator, partial curve, poor fit] |
| Clc1ccc(OCc2nc(-c3ccccn3)n[nH]2)cc1 | – | inconclusive [activator, partial curve, poor fit] |
| CCOc1ccc(N=C/C=C/c2ccccc2)c(O)c1 | – | inconclusive [activator, partial curve, poor fit] |

| Compound | activity change, positive = activation | Potency |
| --- | --- | --- |
| O=C(CCNC(=O)c1ccc(Cl)cc1)Nc1ccccc1N1CCCCC1 | inactive: 10.1% | – |
| CC(C)C(=O)NC(c1cccs1)c1cc([N+](=O)[O-])c2cccnc2c1O (stereo not drawn) | – | inconclusive [activator, full curve, poor fit] |
| Cn1c(CCN2CCCCC2)nc2cc(NC(=O)Nc3ccccc3)ccc21 | – | inconclusive [activator, partial curve, poor fit] |
| C/C(=N\Nc1nc2ccccc2[nH]1)c1cccs1 | – | inconclusive [activator, partial curve, poor fit] |
| CCOC(=O)c1sc(N/N=C/c2cccc(C)c2)nc1C | – | inconclusive [activator, single point] |
| CC(C)C1Cc2[nH]c(=O)c(C(=O)O)cc2CO1 (stereo not drawn) | – | inconclusive [activator, full curve, poor fit] |
| COc1cc(-c2cc(C(=O)Nc3ccccc3N3CCOCC3)c3ccccc3n2)cc(OC)c1OC | inactive: 4.68% | – |
| O=C(NCCc1c[nH]c2ccccc12)c1ccc([N+](=O)[O-])cc1 | – | inconclusive [activator, partial curve, poor fit] |
| COc1ccc(OCC(=O)Nc2nc3cc4c(cc3s2)OCCO4)cc1 | inactive: 10.7% | – |
| O=C(CSc1nc2ncc(Br)cc2[nH]1)c1ccc([N+](=O)[O-])cc1 | – | inconclusive [activator, single point] |
| Cc1ccc2nc(SCC(=O)N3CCN(C(=O)c4ccco4)CC3)[nH]c2c1 | inactive: 17.3% | – |
| O=C(Nc1ccc(N2CCCC2)c(Cl)c1)c1cccnc1 | – | inconclusive [activator, partial curve, poor fit] |
| O=C(NC(=S)Nc1ccc(Cl)cn1)C12CC3CC(CC(C3)C1)C2 | inactive: 15.3% | – |
| CCC/C(=N\NC(=O)c1csc(C)c1C)c1cccs1 | – | inconclusive [activator, partial curve, poor fit] |
| CCc1ccccc1NC(=O)c1cccc(NC(=O)/C=C/c2ccco2)c1 | – | inconclusive [activator, partial curve, poor fit] |
| CNC(=S)NNC(=O)c1sccc1C | – | inconclusive [activator, partial curve, poor fit] |
| COc1cccc(/C=C/c2ccccn2)c1O | – | inconclusive [activator, full curve, poor fit] |
| Fc1ccc(-n2cc(CNCCc3cccnc3)c(-c3ccccc3Cl)n2)cc1 | inactive: -2.4% | – |
| CC(NC(=O)c1ccc(Br)o1)c1ccc(-n2ccnc2)cc1 (stereo not drawn) | – | inconclusive [activator, full curve, poor fit] |
| COc1ccc(Nc2ncnc3ccccc23)cc1 | – | inconclusive [activator, partial curve, poor fit] |
| CC(C)Cn1c(C(C)C)nc([N+](=O)[O-])c1Sc1ccc(Cl)cn1 | – | inconclusive [activator, partial curve, poor fit] |
| Clc1cc(CSc2ccccc2)nc(-c2ccccc2)n1 | – | inconclusive [activator, full curve, poor fit] |
| CC(=O)c1ccc(NS(=O)(=O)c2ccc3c(c2)CCC(=O)N3)cc1 | – | inconclusive [activator, single point] |

| Compound | activity change, positive = activation | Potency |
| --- | --- | --- |
| Cc1noc(C)c1COc1ccc(C(=O)Nc2ncccc2O)cc1 | inactive: 11.8% | – |
| N#CC1=C(N)C(C#N)(C#N)C(c2ccncc2)C2CN(C(=O)OCc3ccccc3)CC=C12 (stereo not drawn) | – | inconclusive [activator, single point] |
| O=C(COC(=O)CNC(=O)c1ccc([N+](=O)[O-])o1)Nc1ncc(C(F)(F)F)cc1Cl | – | inconclusive [activator, partial curve, poor fit] |
| Cc1cc(O)cc(O)c1C=NCc1ccco1 | – | inconclusive [activator, full curve, poor fit] |
| Cc1cc(O)c(C(=O)/C=C/c2ccccc2Br)c(=O)o1 | – | inconclusive [activator, single point] |
| O=C(CSc1ccccc1C(=O)O)c1ccc(Cl)cc1 | – | inconclusive [activator, partial curve, poor fit] |
| NS(=O)(=O)c1ccc(N2CCOCC2)c(C(=O)NCCCSc2ccccc2)c1 | – | inconclusive [activator, single point] |
| O=c1oc2ccccc2cc1NCc1ccccc1O | – | inconclusive [activator, full curve, poor fit] |
| COc1ccc(CCNC(=O)CCCOc2cccc(C)c2C)cc1OC | inactive: -5.36% | – |
| O=C1NC(=S)N/C1=C/c1ccc2ccccc2c1 | – | inconclusive [activator, single point] |
| O=C(NCC1CCCO1)c1cc(-c2ccccc2)on1 (stereo not drawn) | – | inconclusive [activator, partial curve, poor fit] |
| O=C(CCSc1ccc(Cl)cc1)N1CCOCC1 | – | inconclusive [activator, partial curve, poor fit] |
| O=c1oc(-c2ccccc2)nc2sc3c(c12)CCCC3 | – | inconclusive [activator, full curve, poor fit] |
| O=C(/C=C/c1ccc([N+](=O)[O-])s1)N1CCN(c2ccccc2)CC1 | inactive: 10.9% | – |
| COc1ccccc1CNC(=O)C1CCC1 | inactive: 8.82% | – |
| O=C(/C=C/c1ccco1)NC1=NCCS1 | – | inconclusive [activator, full curve, poor fit] |
| Cc1ccc2c(c1)C(=O)CC(c1ccc3c(c1)OCCO3)O2 (stereo not drawn) | – | inconclusive [activator, single point] |
| O=C(CSc1nncc2ccccc12)N1CCOCC1 | – | inconclusive [activator, partial curve, poor fit] |
| CN(C)C(CNC(=O)CCc1nc2sc3c(c2c(=O)[nH]1)CCCC3)c1ccccc1 (stereo not drawn) | inactive: -5.04% | – |
| CCc1ccc(NC(=O)NCCCN2CCCC2=O)cc1 | – | inconclusive [activator, partial curve, poor fit] |
| O=C(/C=C/c1ccc(F)cc1)NCCCN1CCN(CCCNC(=O)/C=C/c2ccc(F)cc2)CC1 | inactive: 0.554% | – |
| Nc1ccccc1C(=O)N=Nc1[nH]c(N)c2ccccc12 | – | inconclusive [activator, partial curve, poor fit] |
